Hit rate of the full screen: of about 310,000 compounds, about 2,200 (0.71%) showed an effect of 50% or more. The effect is printed as a negative number. This is one part of the list.
molecular target: human ether-à-go-go-related gene (hERG) potassium channel (human, UniProt Q12809); test: primary screen, population patch clamp on CHO cells stably expressing hERG
Sequence (Q12809 whole entry, looked up): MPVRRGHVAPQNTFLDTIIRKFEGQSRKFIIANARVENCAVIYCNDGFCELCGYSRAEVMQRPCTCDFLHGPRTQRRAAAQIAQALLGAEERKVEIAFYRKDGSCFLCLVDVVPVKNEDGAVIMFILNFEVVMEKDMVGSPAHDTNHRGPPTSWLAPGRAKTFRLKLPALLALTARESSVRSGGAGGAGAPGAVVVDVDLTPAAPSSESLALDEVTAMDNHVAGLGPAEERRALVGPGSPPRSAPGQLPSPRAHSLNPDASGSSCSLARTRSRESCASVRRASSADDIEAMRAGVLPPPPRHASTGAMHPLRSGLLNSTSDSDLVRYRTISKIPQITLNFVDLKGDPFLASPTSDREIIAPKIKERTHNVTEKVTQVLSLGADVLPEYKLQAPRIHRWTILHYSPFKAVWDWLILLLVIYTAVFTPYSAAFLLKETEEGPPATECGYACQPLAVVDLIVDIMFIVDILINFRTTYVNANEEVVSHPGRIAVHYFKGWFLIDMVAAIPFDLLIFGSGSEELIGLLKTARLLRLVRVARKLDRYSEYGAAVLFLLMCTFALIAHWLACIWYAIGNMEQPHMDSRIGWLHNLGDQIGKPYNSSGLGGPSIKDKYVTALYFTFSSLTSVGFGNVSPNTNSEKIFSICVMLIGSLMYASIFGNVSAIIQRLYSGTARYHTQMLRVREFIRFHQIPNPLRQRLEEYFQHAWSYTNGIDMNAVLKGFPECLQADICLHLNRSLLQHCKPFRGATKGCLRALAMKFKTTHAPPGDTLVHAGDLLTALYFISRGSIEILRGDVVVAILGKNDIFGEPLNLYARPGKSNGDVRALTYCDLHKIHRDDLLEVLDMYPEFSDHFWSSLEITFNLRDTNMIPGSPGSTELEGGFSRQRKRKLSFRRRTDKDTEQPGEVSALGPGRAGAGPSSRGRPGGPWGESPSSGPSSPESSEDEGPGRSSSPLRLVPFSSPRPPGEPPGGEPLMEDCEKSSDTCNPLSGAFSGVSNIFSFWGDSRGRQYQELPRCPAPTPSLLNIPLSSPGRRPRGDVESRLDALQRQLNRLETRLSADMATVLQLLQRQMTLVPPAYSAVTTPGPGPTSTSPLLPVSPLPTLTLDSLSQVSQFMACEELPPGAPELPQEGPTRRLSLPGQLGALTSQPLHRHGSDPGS

| SMILES | hERG current change (%, negative = inhibition) at 1uM |
| --- | --- |
| CN(C)C(=O)c1cccn(Cc2ccc(C(F)(F)F)cc2)c1=O | 11.4% |
| Cc1cc(N2CCN(S(=O)(=O)c3ccccc3)CC2)c2ccccc2n1 | -78.6% |
| O=C(Oc1ccc(-n2cnnn2)cc1)c1ccccc1 | 9.59% |
| Cc1nn(CCCC(=O)NCc2ccco2)c(=O)c2nn(-c3ccccc3)c(C)c12 | 15.8% |
| CC1Cc2ccccc2N1c1nc(C2CC2)nc2c1nnn2Cc1ccccc1 (stereo not drawn) | 15% |
| CCSc1nc2ccccc2n1CC(=O)N1CCOCC1 | 6% |
| O=C(NNc1ccc([N+](=O)[O-])cc1)C12CC3CC(CC(C3)C1)C2 | 18.2% |
| CCc1cccc(OCC(=O)Nc2ccc(C(=O)O)cc2NC(=O)COc2cccc(CC)c2)c1 | 23.3% |
| Cc1ccc(C(c2sc3nc(C)nn3c2O)N2CC(C)OC(C)C2)cc1 (stereo not drawn) | 14.5% |
| COc1ccccc1CCNC(=O)CSc1ccc(-c2ccco2)nn1 | 5.98% |
| CC1Oc2cc3c(-c4c(O)cc(O)c5c(O)c6c(cc45)OC(C)C(C)C6=O)c(O)cc(O)c3c(O)c2C(=O)C1C (stereo not drawn) | 9.75% |
| Clc1nnc(NN=C2CCCC2)c2ccccc12 | 9.68% |
| CCn1nc(C)cc1C(=O)N1CCCC(C(=O)c2ccccc2SC)C1 (stereo not drawn) | 9.34% |
| COc1cccc(CNS(=O)(=O)c2cc(-c3cc(C)no3)ccc2C(C)C)c1 | 3.85% |
| CCOc1ccc(Nc2nc(Cc3nnc(SCC(=O)c4ccc(C)cc4)o3)cs2)cc1 | 2.59% |
| O=c1[nH]c(CN2CC=C(c3ccccc3)CC2)nc2scc(-c3ccccc3)c12 | 7.46% |
| COc1ccc2nc(NC(=O)CCc3ccc(OC)c(OC)c3)sc2c1 | 11.4% |
| O=C(NCc1ccccc1)c1cc(-c2ccco2)on1 | 0.671% |
| C=CCNC(=O)c1cccc(Br)c1 | 19.2% |
| O=C1CC[C@@H](CN(Cc2ccccn2)Cc2nc(-c3ccc(C(F)(F)F)cc3)no2)N1 | -19.6% |
| O=C1c2ccccc2C(=O)N1c1ccc(Cc2ccncc2)cc1 | 5.56% |
| CCSCc1nnc(SCC(=O)Nc2ccc(OC)cc2)n1C | 6.11% |
| CCc1ccc(N2C(=O)CN(Cc3cccs3)C2=S)cc1 | 9.98% |

| SMILES | hERG current change (%, negative = inhibition) at 1uM |
| --- | --- |
| CCCn1c(C2CCCN2c2nc(C)cs2)nc2cc(Cl)c(Cl)cc21 (stereo not drawn) | -11.1% |
| Cc1cc(SCC(=O)O)nc2ccccc12 | 20.9% |
| CCOC(=O)c1sc(N)c(C(=O)Nc2ccccc2)c1C | 1.36% |
| O=C(/C=C/c1ccc(Cl)cc1)NCCCn1ccnc1 | -14.1% |
| CCC1=NC(c2ccc(Br)cc2)N(O)C1(C)C (stereo not drawn) | 7.13% |
| CCOC(=O)N1CCN(S(=O)(=O)N2CCCC(C(=O)NCc3ccc(F)cc3)C2)CC1 (stereo not drawn) | 5.67% |
| COc1ccc(CCC(=O)NCCS(=O)(=O)N2CCN(c3ccc(OC)cc3)CC2)cc1 | 10.8% |
| COC(=O)c1sc(NC(=O)c2cc3c(s2)CCCC3)nc1C | 8.25% |
| CCNC(=S)N/N=C/c1ccc(F)cc1 | 8.05% |
| Cc1ccc(N2CCN(CCc3ccccc3)CC2)cc1 | -6.51% |
| COc1ccc(C(=O)N/C(=C\c2cn(C)c3ccccc23)C(=O)NCCCN2CCOCC2)cc1 | 11.3% |
| CCOC(=O)c1cc(C(=O)c2cc(Br)ccc2O)coc1=N | 10.2% |
| Cc1ccc(S(=O)(=O)N(C)CCCC(=O)N2CCOCC2)cc1 | 6.68% |
| O=C(c1ccc(N2CCOCC2)cc1)c1cccs1 | 2.41% |
| N#CCC(=O)NNC(=S)Nc1ccccc1C(F)(F)F | 12.7% |
| O=C(CN(C(=O)c1csnn1)c1cccc(Cl)c1)NCCc1ccccc1 | 2.68% |
| COc1cccc(CN(C)C(=O)CN2C(=O)NC(c3ccccc3)(c3ccccc3)C2=O)c1OC | 5.36% |
| C[C@H](Nc1ccc(C(F)(F)F)cc1[N+](=O)[O-])C(=O)O.[Cl-] | 2.73% |
| CC(C(=O)NCCN1CCOCC1)(c1ccccc1)c1ccccc1.Cl | 11.1% |
| COc1ccc(/C=C2/SC(=S)N(CCCC(=O)Nc3cccc(O)c3)C2=O)cc1 | 7.48% |
| CN(C)S(=O)(=O)c1cccc(NC(=O)c2ccccc2OCc2ccc(F)cc2)c1 | 6.8% |
| Cc1ccc(S(=O)(=O)N2CN3CCN(C3)C2)cc1 | -5.75% |

Source: PMC4336329 (PLoS ONE, 2015)
